Data from publication PMC7819943, “Rice protein-binding microarrays: a tool to detect cis-acting elements near promoter regions in rice”.
The list shows a part of the results.

Target: T1, OsWOX13 (Oryza sativa, UniProt Q5QMM3 1-267)
T1 sequence: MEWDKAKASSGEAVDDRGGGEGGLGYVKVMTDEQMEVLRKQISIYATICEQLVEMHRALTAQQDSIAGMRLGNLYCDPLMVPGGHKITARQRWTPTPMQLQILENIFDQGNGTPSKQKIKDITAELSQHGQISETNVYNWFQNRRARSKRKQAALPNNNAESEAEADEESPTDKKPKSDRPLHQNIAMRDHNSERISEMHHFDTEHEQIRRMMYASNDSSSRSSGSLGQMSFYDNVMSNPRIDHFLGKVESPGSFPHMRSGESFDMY
Test: protein-binding microarray (RPBM); PBS, 2% BSA, 51.3 ng/ul salmon testes DNA, 50 uM zinc acetate, 200 nM TF, 25 C, 1 h; high values mean tight binding
Details: protein: recombinant; tags: N-terminal polyhistidine and DsRed monomer fusion (pET32a); label: CyDye5-dUTP incorporated in the synthesized complementary strand; 3' TTTTT single-stranded linker to array surface; dsDNA, one strand shown
In short: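 For the binding signal, per-feature fluorescence intensity was read in arbitrary units on an Axon 4000B scanner. Before scanning, a 2% BSA-blocked custom Agilent array made double-stranded with Cy5-dUTP was washed after 1 h at 25 °C with 200 nM protein and 50 µM zinc acetate. The proteins were Ni–NTA-purified transcription factors with N-terminal polyhistidine and DsRed fusions, expressed in E. coli BL21-CodonPlus.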

Row | Sequence | binding signal
1 | TTTATATTGATTATAAATGAAATGTCTTATTAGCGATTGACGGAGTCACCTAGTGCAG | 36900 fluorescence intensity (a.u.)
2 | ACTGCACGTGATTGGTCCTTAAAGGTGGCCGTGCTCGGGTCGGAGTCACCTAGTGCAG | 43700 fluorescence intensity (a.u.)
3 | GTTAACCATTTTCACTTTAATTTGTCCTTTCGATTGCAACCGGAGTCACCTAGTGCAG | 4680 fluorescence intensity (a.u.)
4 | ATTATCTAATTTATCATCCAAAATCAACGAACAAAGCAGTCGGAGTCACCTAGTGCAG | 7380 fluorescence intensity (a.u.)
5 | CAATTAATTTCAATTGCAGCAAATTTACTTTCTTCAAGCTCGGAGTCACCTAGTGCAG | 33700 fluorescence intensity (a.u.)
6 | CAGTATCCAAATTTAAATTTTCAAACTTAACTTGTAAGTTCGGAGTCACCTAGTGCAG | 4450 fluorescence intensity (a.u.)
7 | GATTGATGGAGACTGCTAGATGCAAACGTGTCCAAACTGCCGGAGTCACCTAGTGCAG | 21300 fluorescence intensity (a.u.)
8 | GTTCAAATTATTTGTTCTGCGATTACTAGATATAAGCTAACGGAGTCACCTAGTGCAG | 10700 fluorescence intensity (a.u.)
9 | ATTATTATTAATAATAATTTTATGGGCCATCTATTTATTTCGGAGTCACCTAGTGCAG | 5520 fluorescence intensity (a.u.)
10 | CCAATGATTCACATCAACAGAATGACTATCGAAACTTATGCGGAGTCACCTAGTGCAG | 5310 fluorescence intensity (a.u.)
11 | AGATTCTATCTGCTAATCATATGAAAGTAATAGAAATGTCCGGAGTCACCTAGTGCAG | 3320 fluorescence intensity (a.u.)
12 | CATTGGATTGCAAAATCTACTGAATGATAAACAAAGGATTCGGAGTCACCTAGTGCAG | 3410 fluorescence intensity (a.u.)
13 | GAGCCTAATTAATTCGTGATTAGCCTAATGACGGATTAATCGGAGTCACCTAGTGCAG | 57400 fluorescence intensity (a.u.)
14 | ACCTAACAGAATTAATCACAAGCAAGGAGAGCTAGCAGGCCGGAGTCACCTAGTGCAG | 25100 fluorescence intensity (a.u.)
15 | TAATTAATTATAAGCTAATGAATCCCTATTTTAGATACTCCGGAGTCACCTAGTGCAG | 35500 fluorescence intensity (a.u.)
16 | TTCAAATTTTGATTTTAAAATTTGAATCGAAAATTTTCAACGGAGTCACCTAGTGCAG | 10900 fluorescence intensity (a.u.)
17 | TTTTGAAATTTATTTATTTATTGAAAGAATCGAGGATGTTCGGAGTCACCTAGTGCAG | 4270 fluorescence intensity (a.u.)
18 | AGTAGTAATTATATACCATCAGATATATAGACAGTACTTTCGGAGTCACCTAGTGCAG | 6840 fluorescence intensity (a.u.)
19 | TAACAGATTGGAGGAGGAGCAGGAGTACTCACGTATTACCCGGAGTCACCTAGTGCAG | 8000 fluorescence intensity (a.u.)
20 | CGGCCCAGGTGGGAGAGGAGGGGAGGGGAGGGGAGGGATGCGGAGTCACCTAGTGCAG | 6460 fluorescence intensity (a.u.)
21 | AACGCAATCTAAACCCCATAATTTAACATAATAACAAAATCGGAGTCACCTAGTGCAG | 5740 fluorescence intensity (a.u.)

Row | Sequence | binding signal
22 | CCCATATTGCTGATTTCACTTAATTTGTCCTCTCTGTTCTCGGAGTCACCTAGTGCAG | 9610 fluorescence intensity (a.u.)
23 | TTTGATTTACCATGCTTTTGAGTTCTACAACCACATCTCACGGAGTCACCTAGTGCAG | 15300 fluorescence intensity (a.u.)
24 | CGCTTAAATGACTGAATTAATGCTAACCCTGTTCCAGCTCCGGAGTCACCTAGTGCAG | 36200 fluorescence intensity (a.u.)
25 | GCGTGATTTAAACTCGACGTCAAGAAGAGGAATCTAAAGTCGGAGTCACCTAGTGCAG | 16100 fluorescence intensity (a.u.)
26 | CCTAATTTCTATTTCTCTAATCCTAGTCTCATGCTTCTGCCGGAGTCACCTAGTGCAG | 21800 fluorescence intensity (a.u.)
27 | AACATAATTATGAGACGAGAAGAAGCAGAACACCATGTTGCGGAGTCACCTAGTGCAG | 14700 fluorescence intensity (a.u.)
28 | ATTGACAGGCGAGGGATATTTGCAGAAAGAACCCTGGGTACGGAGTCACCTAGTGCAG | 12400 fluorescence intensity (a.u.)
29 | TCAAACCAATTCTTTGATTAAATCATTTGCATAGCCAATTCGGAGTCACCTAGTGCAG | 3790 fluorescence intensity (a.u.)
30 | CATACAGCTGTTGATTGTTTATCCCTATGTATAAGCCAGCCGGAGTCACCTAGTGCAG | 15000 fluorescence intensity (a.u.)
31 | ATGGATGTACTATGATTTGATTTTAATTTTCAACACCTGCCGGAGTCACCTAGTGCAG | 16800 fluorescence intensity (a.u.)
32 | GGGAGAGAATGTGCTAATTAATTGCATGCATGCATGCACGCGGAGTCACCTAGTGCAG | 12000 fluorescence intensity (a.u.)
33 | TCAACTGAATTTACAAATGTAAATTTAGTTATATAGGATTCGGAGTCACCTAGTGCAG | 4360 fluorescence intensity (a.u.)
34 | AAACTAAATTTATAAATTGGAGCTCTACAAGGACCTAAAACGGAGTCACCTAGTGCAG | 26900 fluorescence intensity (a.u.)
35 | CTGATTTGACTGAATGAATGAATTAATTAATGAGATGTATCGGAGTCACCTAGTGCAG | 61600 fluorescence intensity (a.u.)
36 | ACTAATTTGATATGAAAGTTGGACTTCTCATTGCAGCTCACGGAGTCACCTAGTGCAG | 23300 fluorescence intensity (a.u.)
37 | TAAACTCCAAGTTGATTATCCAACGAATCGTAGCCTCGAGCGGAGTCACCTAGTGCAG | 5690 fluorescence intensity (a.u.)
38 | AATGTGGACAATTCAATCAAAATCTCTTATATTTAGGGACCGGAGTCACCTAGTGCAG | 7540 fluorescence intensity (a.u.)
39 | ATTACTAATTACTGTATGTTACTTGACTAAACAACCTATGCGGAGTCACCTAGTGCAG | 27700 fluorescence intensity (a.u.)
40 | AATTGAATGGCTAATTAAGAGACCAAGTCTTTCACACCATCGGAGTCACCTAGTGCAG | 15300 fluorescence intensity (a.u.)
41 | ATTAAATTGAAAATTAAATGTACGAGAATCGTCCATGTCACGGAGTCACCTAGTGCAG | 50900 fluorescence intensity (a.u.)
42 | CATCAATGATGGAATTATGTAATTAAGGTTAGTGCAAAGACGGAGTCACCTAGTGCAG | 23600 fluorescence intensity (a.u.)
